# Reference: the supplement of paper PMC3334620
# In all, about 33,000 sequences were measured (“E-score (-0.5 to 0.5)”: median about -0.036, highest 2% from about 0.37 on). The list shows a part of the results.
# Biological target: T1, Yer064c (UniProt P40041)
# T1 sequence: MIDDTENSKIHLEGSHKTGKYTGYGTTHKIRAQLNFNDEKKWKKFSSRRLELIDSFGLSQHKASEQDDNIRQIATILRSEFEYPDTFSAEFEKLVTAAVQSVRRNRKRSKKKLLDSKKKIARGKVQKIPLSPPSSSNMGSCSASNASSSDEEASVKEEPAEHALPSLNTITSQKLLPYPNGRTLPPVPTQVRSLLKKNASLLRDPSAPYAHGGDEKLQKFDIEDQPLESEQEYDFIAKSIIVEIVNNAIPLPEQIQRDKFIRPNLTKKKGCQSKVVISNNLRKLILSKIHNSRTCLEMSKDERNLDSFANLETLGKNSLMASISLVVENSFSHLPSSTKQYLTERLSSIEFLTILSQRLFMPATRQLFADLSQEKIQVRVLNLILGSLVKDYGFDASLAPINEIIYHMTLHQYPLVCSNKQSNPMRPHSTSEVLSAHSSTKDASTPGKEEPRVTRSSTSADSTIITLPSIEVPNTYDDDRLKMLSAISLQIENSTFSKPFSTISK
# Assay: PBM E-score (8-mer binding enrichment) (E-score (-0.5 to 0.5)); higher = stronger / more preferred TF binding; most listed sequences are background and not binding sites
# Settings: protein concentration: 200 nM; construct: GST-full length
# Method in brief: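 The E-score, a modified Wilcoxon-Mann-Whitney statistic, was computed by the Universal PBM Analysis Suite for every ungapped eight-base word pooled with its reverse complement. Scans behind it were normalised with masliner after bound GST-tagged yeast transcription factors were detected with fluorescent anti-GST. The proteins, at about 100-200 nM, had been applied to universal all-10-mer Agilent arrays made double-stranded by primer extension.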
row,Sequence,PBM E-score
1,GCCACAAC,-0.125
2,AGTACCGA,-0.0648
3,AGAGCGCC,-0.124
4,GATTGACC,0.133
5,ACGAGCCA,0.195
6,AAGCCCGC,-0.329
7,AGCCATCG,0.229
8,GACTGATC,0.314
9,AGTCTAAT,0.156
10,AGGGTCTG,-0.181
11,GATTGACA,0.261
12,CCAAAGAA,-0.0797
13,AGACATTC,0.118
14,CCTGTGCA,-0.146
15,CAGACCAG,-0.0215
16,ATAACTTA,0.15
17,GAGTTGTA,0.0614
18,CCCCGCCG,-0.246
19,CGACTGAG,0.241
20,AGTGGAAT,0.00193
21,CATTAACA,0.106
22,CATCAGTA,0.0609

row,Sequence,PBM E-score
1,AGCTGAAT,-0.00359
2,CCTAACGC,-0.104
3,AACCGAGG,-0.0732
4,CGTTCCTC,-0.262
5,CACTGTTA,-0.175
6,CATTGTAA,0.0341
7,ACCGCTGC,-0.321
8,AACCGCAG,-0.0549
9,CATCATGA,0.294
10,ACGACTCC,0.423
11,ATAACCTG,-0.0996
12,ATGATTGA,0.423
13,ACAGCTGC,0.0661
14,ACCACACA,-0.051
15,CTGACCTA,0.226
16,GGAGGGCC,-0.322
17,ATATGGTC,-0.091
18,CCACGCAC,-0.162
19,CTCGCTTA,0.0025
20,ATCTGCCA,-0.162
21,AAATTGTT,0.00195
22,TGACAACA,-0.0584

row,Sequence,PBM E-score
1,ACTAGGCC,-0.0909
2,AGAGGTGG,-0.273
3,AGTAAAGG,0.0771
4,GAGCAGAC,-0.145
5,CACGCGAG,0.17
6,CACATGCC,0.0703
7,CTTGGGGA,-0.0821
8,ACTCGCAT,0.213
9,GTTAGATA,0.0205
10,CCGTAAGG,-0.286
11,ACTGAATG,0.011
12,CGCCTACG,-0.0445
13,GGAACCTA,-0.242
14,ATGAACGA,-0.138
15,ATTAGGCG,0.00056
16,AATAATCT,0.201
17,TGACCAAA,0.027
18,CCCTAGGG,0.0143
19,ATGACATC,-0.0791
20,CACCTCAA,0.0525
21,AAAGACCA,-0.029
22,CTTGCCAA,0.0295

row,Sequence,PBM E-score
1,TTCAGGAA,0.0545
2,CAGCTCCC,-0.0873
3,GGTGACGA,-0.0961
4,GAACCTCC,-0.247
5,ATTAAACA,0.23
6,AATATCTA,-0.0454
7,CATCGATA,0.0372
8,ACACCCCC,-0.0828
9,CGCCGACG,0.0193
10,CAGCTTCC,-0.237
11,GGCGCCAC,-0.167
12,GTGGGAAC,-0.183
13,CATCGGGC,-0.256
14,AAAGTAAG,0.0165
15,TGGATACA,0.042
16,CTAAACAC,0.107
17,GCCAGCAA,-0.238
18,CCCGTTGA,0.0939
19,GGCGGACC,-0.297
20,ACGACTAA,0.438
